Measurements: patent US5714467A, “Antibacterial and antimalarial hybrid peptides” (The Rockefeller University, priority 1993, dated 1998)
At least one peptide structure holds a part that was inferred or is arguable (an end, a ring closure or a residue). Where no end group is shown, it is not given here.

Tests used:
Test in all cases: inhibition zone assay, lethal concentration
Assay type in all cases: cell-based
Streptococcus pyogenes = details: for Lethal concentration, Strep = S. pyogenes: Table 3, agarose plates, overnight incubation at 30° C.
Procedure: (§1) The products of the invention were tested for activity against a variety of test organisms selected to represent a number of different types of pathogens some of them known to be particularly virulent by the inhibition zone assay of Hoffmann et al (1981) Insect Biochem. 11 537-548 which is incorporated herein by reference. Thin agar or agarose plates (8.5 cm diameter) were prepared with 6 ml of rich medium containing 100 ug/ml of streptomycin and 2×10^5 viable cells of a test organism resistant to streptomycin. Wells of […] diameter were punched in the plates and 3 ul of serially diluted samples were placed in the wells. The diameters of the zones of inhibition around the wells were measured after overnight incubation at 30° or 37° C. For each peptide the squares of the zone diameters were plotted against the logarithm of the concentration, and from the slopes and intercepts the lethal concentrations were calculated as described by Hultmark (1983) EMBO J. 2, 571-76 or Hultmark et al (1982) Eur. J. Biochem. 127 207-217 each of which being incorporated herein by reference.
(§2) It was observed during testing that basic peptides often bind to agar plates, but not so much to agarose. Therefore those lethal concentrations determined on agar may, in fact, be substantially higher than the actual lethal concentrations.
(§3) Novel peptides CA(1-8)M(1-18), CA(1-9)M(1-17), CB(1-13)M(1-13), CA(1-17)M(1-9), CA(1-18)M(1-8), M(1-13)CA(1-22) and M(1-13)CA(1-13) were prepared as described above (see Examples 1-6). These novel peptides and CA, CB, and M were tested for activity against a variety of organisms selected to represent a number of different types of pathogens, some of them known to be particularly virulent by the inhibition zone assay of Hoffmann et al (1981), Insect Biochem. 11 537-48. As in Examples 1-6, thin agarose plates were prepared with the respective organisms. The diameters of the zones of inhibition were measured after overnight incubation at 30° C. The lethal concentrations were determined as described above (see Examples 1-6; Hultmark et al articles cited thereat).

[1] = tested on: Staphylococcus aureus Cowan I; details: for Lethal concentration, Staph = S. aureus Cowan I: Table 3, agarose plates, overnight incubation at 30° C.
Procedure: as §1, §2, §3

Bacillus subtilis Bs11 = details: for Lethal concentration, Bs11 = B. subtilis: Table 3, agarose plates; for Lethal concentration, Bs11 = B. subtilis / Lethal concentration, Bs11 + ME = B. subtilis, plates prepared with medium E: overnight incubation at 30° C.; for Lethal concentration, Bs11 + ME = B. subtilis, plates prepared with medium E: Table 3, medium E, agarose plates
Procedure: as §1, §2, §3

Escherichia coli D21 = details: for Lethal concentration, D21 = E. coli: Table 3, agarose plates, overnight incubation at 30° C.
Procedure: as §1, §2, §3

[2] = tested on: Pseudomonas aeruginosa OT97; details: for Lethal concentration, OT97 = P. aeruginosa: Table 3, agarose plates, overnight incubation at 30° C.
Procedure: as §1, §2, §3

Bacillus megaterium BM11 = details: Table 2, no incubation footnote
Procedure: as §1, §2

[3] = Table 2, footnote b: incubation overnight at 30° C.
[4] = Table 2, no incubation footnote

Compound	Lethal concentration, Streptococcus pyogenes (Streptococcus pyogenes; [3]) [µM]	Lethal concentration, Strep = S. pyogenes (Streptococcus pyogenes) [µM]	Lethal concentration, Staphylococcus aureus Cowan I [1, 3] [µM]	Lethal concentration, Staph = S. aureus Cowan I [1] [µM]	Lethal concentration, Bacillus subtilis Bs11 (Bacillus subtilis Bs11; [3]) [µM]	Lethal concentration, Bs11 = B. subtilis (Bacillus subtilis Bs11) [µM]	Lethal concentration, Bs11 + ME = B. subtilis, plates prepared with medium E (Bacillus subtilis Bs11) [µM]	Lethal concentration, Escherichia coli D21 (Escherichia coli D21; [3]) [µM]	Lethal concentration, D21 = E. coli (Escherichia coli D21) [µM]	Lethal concentration, Pseudomonas aeruginosa OT97 [2, 3] [µM]	Lethal concentration, OT97 = P. aeruginosa [2] [µM]	Lethal concentration, Bacillus megaterium BM11 (Bacillus megaterium BM11) [µM]	Lethal concentration, Streptococcus pyogenes (Streptococcus pyogenes; [4]) [µM]	Lethal concentration, Staphylococcus aureus Cowan I [1, 4] [µM]	Lethal concentration, Bacillus subtilis Bs11 (Bacillus subtilis Bs11; [4]) [µM]	Lethal concentration, Escherichia coli D21 (Escherichia coli D21; [4]) [µM]	Lethal concentration, Pseudomonas aeruginosa OT97 [2, 4] [µM]
CC[C@H](C)[C@H](NC(=O)CN)C(=O)NCC(=O)N[C@@H](C)C(=O)N[C@H](C(=O)N[C@@H](CC(C)C)C(=O)N[C@@H](CCCCN)C(=O)N[C@H](C(=O)N[C@@H](CC(C)C)C(=O)N[C@H](C(=O)N[C@H](C(=O)NCC(=O)N[C@@H](CC(C)C)C(=O)N[C@@H](CCCCN)C(=O)N[C@@H](Cc1c[nH]c2ccccc12)C(=O)N[C@@H](CCCCN)C(=O)N[C@@H](CC(C)C)C(=O)N[C@@H](Cc1ccccc1)C(=O)N[C@@H](CCCCN)C(=O)N[C@@H](CCCCN)C(=O)N[C@H](C(=O)N[C@@H](CCC(=O)O)C(=O)N[C@@H](CCCCN)C(=O)N[C@H](C(=O)NCC(=O)N[C@@H](CCC(N)=O)C(N)=O)C(C)C)[C@@H](C)CC)[C@@H](C)O)[C@@H](C)O)C(C)C)C(C)C [M(1-13)CA(1-13)]	1	1	5	5	0.3	0.3	0.1	1	1	5	5						
CC[C@H](C)[C@H](NC(=O)CNC(=O)[C@H](CCCNC(=N)N)NC(=O)CNC(=O)[C@H](CCSC)NC(=O)[C@H](CCCCN)NC(=O)[C@H](CCC(=O)O)NC(=O)[C@@H](NC(=O)[C@H](CCCCN)NC(=O)[C@H](CCCCN)NC(=O)[C@H](Cc1ccccc1)NC(=O)[C@@H](NC(=O)[C@H](CCCCN)NC(=O)[C@H](Cc1c[nH]c2ccccc12)NC(=O)[C@@H](N)CCCCN)C(C)C)[C@@H](C)CC)C(=O)NCC(=O)N[C@@H](C)C(=O)N[C@H](C(=O)N[C@@H](CC(C)C)C(=O)N[C@@H](CCCCN)C(=O)N[C@H](C(=O)N[C@@H](CC(C)C)C(=O)N[C@H](C(=O)N[C@H](C(=O)NCC(=O)N[C@@H](CC(C)C)C(N)=O)[C@@H](C)O)[C@@H](C)O)C(C)C)C(C)C [CB(1-13)M(1-13)]		1		4		0.4	0.4		0.3		1						
KWKLFKKAVLKVLTT-NH2 [CA(1-7)M(4-11)]												0.5	0.7	8	0.6	0.6	4
CC[C@H](C)[C@H](NC(=O)[C@H](CCC(N)=O)NC(=O)[C@@H](NC(=O)[C@H](C)NC(=O)[C@H](CCC(N)=O)NC(=O)CNC(=O)[C@@H](NC(=O)[C@@H](NC(=O)[C@H](C)NC(=O)[C@@H](NC(=O)[C@H](C)N)C(C)C)C(C)C)C(C)C)[C@@H](C)O)C(=O)N[C@@H](C)C(=O)N[C@@H](CCCCN)C(=O)N[C@@H](CCCCN)C(=O)N[C@@H](Cc1c[nH]c2ccccc12)C(=O)N[C@@H](CCCCN)C(=O)N[C@@H](CC(C)C)C(=O)N[C@@H](Cc1ccccc1)C(=O)N[C@@H](CCCCN)C(=O)N[C@@H](CCCCN)C(=O)N[C@H](C(=O)N[C@@H](CCC(=O)O)C(=O)N[C@@H](CCCCN)C(=O)N[C@H](C(=O)NCC(=O)N[C@@H](CCC(N)=O)C(N)=O)C(C)C)[C@@H](C)CC [CA(25-37)CA(1-13)]	20		> 300		20			200		300							
CC[C@H](C)[C@H](NC(=O)[C@H](CC(C)C)NC(=O)[C@H](C)NC(=O)[C@@H]1CCCN1C(=O)[C@H](CC(C)C)NC(=O)CNC(=O)[C@@H](NC(=O)[C@@H](NC(=O)[C@H](CC(C)C)NC(=O)[C@@H](NC(=O)[C@H](CCCCN)NC(=O)[C@H](CC(C)C)NC(=O)[C@@H](NC(=O)[C@H](C)NC(=O)CNC(=O)[C@@H](NC(=O)CNC(=O)[C@H](CCC(=O)O)NC(=O)[C@@H](NC(=O)[C@H](CCCCN)NC(=O)[C@H](CCCCN)NC(=O)[C@H](Cc1ccccc1)NC(=O)[C@H](CC(C)C)NC(=O)[C@H](CCCCN)NC(=O)[C@H](Cc1c[nH]c2ccccc12)NC(=O)[C@@H](N)CCCCN)[C@@H](C)CC)[C@@H](C)CC)C(C)C)C(C)C)[C@@H](C)O)[C@@H](C)O)C(N)=O [CA(1-9)M(1-17)]		0.3		6		0.7	0.9		0.3		1						
KWKLFKKLKVLTTGL-NH2 [CA(1-7)M(6-13)]												0.5	0.4	51	1	2	8
KWKLFKKIEKVGQNIRDGGIGAVLKV-NH2 [CA(1-18)M(1-8)]		3		600		4	20		1		15						
KWKLFKKIGIGAVLKVLT-NH2 [CA(1-8)M(1-10)]													0.8	7	0.3	0.5	3
KWKLFKKIEKVGQNIRDGIGAVLKVL-NH2 [CA(1-17)M(1-9)]		0.2		4		0.5	1		0.5		5						
CC[C@H](C)[C@H](NC(=O)CNC(=O)[C@@H](NC(=O)[C@H](CCCCN)NC(=O)[C@H](CCCCN)NC(=O)[C@H](Cc1ccccc1)NC(=O)[C@H](CC(C)C)NC(=O)[C@H](CCCCN)NC(=O)[C@H](Cc1c[nH]c2ccccc12)NC(=O)[C@@H](N)CCCCN)[C@@H](C)CC)C(=O)NCC(=O)N[C@@H](C)C(=O)N[C@H](C(=O)N[C@@H](CC(C)C)C(=O)N[C@@H](CCCCN)C(=O)N[C@H](C(=O)N[C@@H](CC(C)C)C(=O)N[C@H](C(=O)N[C@H](C(=O)NCC(N)=O)[C@@H](C)O)[C@@H](C)O)C(C)C)C(C)C [CA(1-8)M(1-12)]													0.1	2	0.3	0.4	0.9
CC[C@H](C)[C@H](NC(=O)CN)C(=O)NCC(=O)N[C@@H](C)C(=O)N[C@H](C(=O)N[C@@H](CC(C)C)C(=O)N[C@@H](CCCCN)C(=O)N[C@H](C(=O)N[C@@H](CC(C)C)C(=O)N[C@H](C(=O)N[C@H](C(=O)NCC(=O)N[C@@H](CC(C)C)C(=O)N[C@@H](CCCCN)C(=O)N[C@@H](Cc1c[nH]c2ccccc12)C(=O)N[C@@H](CCCCN)C(=O)N[C@@H](CC(C)C)C(=O)N[C@@H](Cc1ccccc1)C(=O)N[C@@H](CCCCN)C(=O)N[C@@H](CCCCN)C(=O)N[C@H](C(=O)N[C@@H](CCC(=O)O)C(=O)N[C@@H](CCCCN)C(=O)N[C@H](C(=O)NCC(=O)N[C@@H](CCC(N)=O)C(=O)N[C@@H](CC(N)=O)C(=O)N[C@H](C(=O)N[C@@H](CCCNC(=N)N)C(=O)N[C@@H](CC(=O)O)C(=O)NCC(=O)N[C@H](C(=O)N[C@H](C(=O)N[C@@H](CCCCN)C(=O)N[C@@H](C)C(N)=O)[C@@H](C)CC)[C@@H](C)CC)[C@@H](C)CC)C(C)C)[C@@H](C)CC)[C@@H](C)O)[C@@H](C)O)C(C)C)C(C)C [M(1-13)CA(1-22)]		1		5			0.2		0.7								
KWKLFKKGAVLKVLT-NH2 [CA(1-7)M(3-10)]												0.9	1	200	6	3	15
